# Assay results reported in the supplement of paper PMC7826260.
# The other results are listed elsewhere or left out. One pool of 16,384 single-stranded DNAs met each Rep nickase domain in vitro (1 h at 37 °C, 3 µM enzyme); the outer parts of the 90-letter strands are left off. The score is log2 (uncut reads / reads without enzyme); more negative means more cut, near 0 not cut, and no call is made. Shares of all reads are compared; where an enzyme cuts many sequences, the uncut ones exceed 0.
# Experiments:
# Assay in all cases: uncleaved DNA left, log2 of reads against the no-enzyme library (log2 ratio); higher = less cleavage (more negative = more Rep cleavage of the k-mer); sequences stand for … in CTCGTCCG…ACCGGAGA
# [1] = system: T1, Rep nickase domain of Muscovy duck circovirus
# T1 sequence (residues 1-111, tag not shown): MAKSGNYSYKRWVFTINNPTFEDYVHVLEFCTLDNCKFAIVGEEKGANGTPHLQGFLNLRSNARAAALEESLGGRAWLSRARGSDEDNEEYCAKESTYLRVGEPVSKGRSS
# Protocol: (§1)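 A pool of 90-nt single-stranded DNAs with seven random bases just before the constant AC of the nick site (name = the seven bases) was cut by 3 µM recombinant His6-SUMO-tagged Rep nickase domain (300 nM DNA, 50 mM HEPES pH 8.0, 50 mM NaCl, 1 mM MnCl2, 1 h, 37 °C, three replicates). Uncut DNA was amplified and sequenced.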
# [2] = system: T2, Rep nickase domain of banana bunchy top virus
# T2 sequence (residues 1-94, tag not shown): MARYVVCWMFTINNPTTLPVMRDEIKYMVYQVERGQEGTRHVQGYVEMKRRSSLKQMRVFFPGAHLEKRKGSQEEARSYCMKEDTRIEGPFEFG
# Protocol: as §1
# [3] = system: T3, Rep nickase domain of cabbage leaf curl virus
# T3 sequence (residues 1-116, tag not shown): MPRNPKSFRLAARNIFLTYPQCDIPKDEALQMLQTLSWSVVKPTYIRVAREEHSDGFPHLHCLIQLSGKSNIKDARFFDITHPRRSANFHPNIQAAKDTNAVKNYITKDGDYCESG
# Protocol: as §1
# [4] = system: T4, Rep nickase domain of chickpea chlorotic dwarf virus
# T4 sequence (residues 1-124, tag not shown): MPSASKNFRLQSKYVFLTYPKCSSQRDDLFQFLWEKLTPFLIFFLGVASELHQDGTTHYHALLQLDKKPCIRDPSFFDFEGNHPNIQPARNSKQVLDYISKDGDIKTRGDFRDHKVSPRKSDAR
# Protocol: as §1
# [5] = system: T5, Rep nickase domain of faba bean necrotic yellows virus
# T5 sequence (residues 1-98, tag not shown): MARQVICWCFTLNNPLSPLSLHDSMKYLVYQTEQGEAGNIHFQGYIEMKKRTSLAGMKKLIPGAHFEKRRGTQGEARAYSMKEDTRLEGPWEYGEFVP
# Protocol: as §1
# [6] = system: T6, Rep nickase domain of maize striate mosaic virus
# T6 sequence (residues 1-117, tag not shown): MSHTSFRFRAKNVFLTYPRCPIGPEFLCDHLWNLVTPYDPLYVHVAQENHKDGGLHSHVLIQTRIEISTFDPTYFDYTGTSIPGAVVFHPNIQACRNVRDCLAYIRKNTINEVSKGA
# Protocol: as §1
# [7] = system: T7, Rep nickase domain of porcine circovirus 2
# T7 sequence (residues 2-116, tag not shown): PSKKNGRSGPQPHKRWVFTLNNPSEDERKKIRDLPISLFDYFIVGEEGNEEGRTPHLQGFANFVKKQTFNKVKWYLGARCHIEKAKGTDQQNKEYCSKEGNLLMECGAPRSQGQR
# Protocol: as §1
# [8] = system: T8, Rep nickase domain of tomato golden mosaic virus
# T8 sequence (residues 1-124, tag not shown): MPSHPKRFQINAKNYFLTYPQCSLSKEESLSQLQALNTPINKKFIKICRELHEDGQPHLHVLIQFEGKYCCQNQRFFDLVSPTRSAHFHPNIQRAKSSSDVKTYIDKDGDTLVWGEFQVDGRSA
# Protocol: as §1
# [9] = system: T9, Rep nickase domain of tomato yellow leaf curl virus
# T9 sequence (residues 1-136, tag not shown): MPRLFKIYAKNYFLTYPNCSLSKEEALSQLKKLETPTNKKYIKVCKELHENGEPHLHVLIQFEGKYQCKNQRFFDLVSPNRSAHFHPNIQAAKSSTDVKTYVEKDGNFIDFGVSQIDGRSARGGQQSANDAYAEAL
# Protocol: as §1
# [10] = system: T10, Rep nickase domain of wheat dwarf virus
# T10 sequence (residues 1-137, tag not shown): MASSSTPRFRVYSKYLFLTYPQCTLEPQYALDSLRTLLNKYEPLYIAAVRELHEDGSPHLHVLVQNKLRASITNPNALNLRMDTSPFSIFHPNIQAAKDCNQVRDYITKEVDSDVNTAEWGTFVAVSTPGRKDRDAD
# Protocol: as §1
Sequence,uncleaved DNA left (log2) [1],uncleaved DNA left (log2) [2],uncleaved DNA left (log2) [3],uncleaved DNA left (log2) [4],uncleaved DNA left (log2) [5],uncleaved DNA left (log2) [6],uncleaved DNA left (log2) [7],uncleaved DNA left (log2) [8],uncleaved DNA left (log2) [9],uncleaved DNA left (log2) [10]
CAGATGT,0.0376,-0.209,0.0467,-0.257,-0.0911,0.0826,-3.04,-0.00621,0.0322,0.00184
GTCTCCG,0.06,0.0493,0.188,0.557,-0.0288,1.11,0.0488,0.11,-0.0493,0.0312
ACCCTGA,-0.0523,-0.136,-0.299,-0.111,-0.156,-0.677,-0.187,-0.148,-0.274,-0.122
CCGAATT,-0.0172,-0.162,0.00366,-1.55,-0.0525,-0.169,-0.828,-0.00929,0.213,-0.0956
ATTGACG,-0.0888,-0.104,-0.986,-0.0712,0.004,-1.06,0.0628,-0.132,-0.0718,-0.184
CATTGTT,-3.57,-3.84,-2.14,-2.91,-1.07,-1.85,-3.85,-0.751,0.0454,-0.672
AGGCCAG,-0.0395,0.0194,-0.224,-0.139,0.0156,-0.425,0.0794,-0.0163,-0.0534,-0.0647
GCGCTGA,-0.129,-0.168,-0.0318,0.478,-0.0352,1.5,-0.108,-0.178,-0.24,-0.0511
